This is one part of the list. Antibody binding of pooled human sera (four to six donors per pool; dilution not stated) to peptides of the Trypanosoma cruzi antigen TSSA on microarrays. Quantile-normalised fluorescence in arbitrary units, mean of duplicate arrays; higher = more binding. No active / inactive call. The uninfected pools are read here as the healthy donors of the same country. The strongest signals lie near the top of the scale (about 60,000).

Holding throughout (assay): antibody binding signal (normalised fluorescence) (arbitrary fluorescence units); higher = stronger serum antibody binding to peptide
Assay [1] concerns pooled sera of chronic Chagas disease patients, Argentina. On the procedure:
(§1)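 Microarray of 15-residue peptides over residues 30-55 of Trypanosoma cruzi TSSAII, each with 1 to 10 substitutions at naturally variable positions, probed with one serum pool per country.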

Assay [2] concerns pooled sera of chronic Chagas disease patients, Bolivia. On the procedure: as §1
For assay [3], the system named is pooled sera of chronic Chagas disease patients, Brazil. On the procedure: as §1
Assay [4] concerns pooled sera of chronic Chagas disease patients, Colombia. As to the method: as §1
In assay [5] the test system is pooled sera of chronic Chagas disease patients, Mexico. As to the method: as §1
For assay [6], the system named is pooled sera of chronic Chagas disease patients, USA. On the procedure: as §1
Assay [7] has as its system pooled sera of uninfected people, Argentina. On the procedure:
as §1

The subject of assay [8] is pooled sera of uninfected people, Bolivia. On the procedure:
as §1

In assay [9] the test system is pooled sera of uninfected people, Brazil. As to the method:
as §1

In assay [10] the test system is pooled sera of uninfected people, Mexico. On the procedure: as §1
The subject of assay [11] is pooled sera of uninfected people, USA. As to the method:
as §1

Turning to TSSTPPSGKEKKPAA, the antibody binding signal in [1] came to 18800; in assay [2], 349; in assay [3] it was 458; in assay [4], 236; in [5], 35400; in assay [6], 367. Also, the antibody binding signal in [7] worked out at 742; in [8] it was 292; in assay [9], 101; in assay [10], 75.1; in [11] it was 269.

With PSGKDNKTAAGEAPS, the antibody binding signal is 5390 in [1]; 2390 in assay [2]; 5620 in [3]; 10400 in assay [4]; 6780 in assay [5]; 8100 in assay [6]. Further, the antibody binding signal in assay [7] was found to be 452; in assay [8] it was 366; in assay [9], 263; in assay [10], 143; in assay [11], 189.

As to GKENKPAAGEAPSQP, the antibody binding signal in [1] stood at 16400; in assay [2], 8170; in assay [3] it was 41600; in assay [4] it was 14300; in [5], 17400; in [6] it was 22200. The antibody binding signal in assay [7] was 644; in assay [8], 295; in [9], 153; in assay [10] it was 299; in assay [11], 102.

As to GKDNKAATGGAPSQS, the antibody binding signal came out at 604 in assay [1]; 219 in assay [2]; 579 in assay [3]; 955 in assay [4]; 1180 in assay [5]; 1340 in [6]. Besides, the antibody binding signal came out at 206 in assay [7]; 200 in assay [8]; 90.8 in assay [9]; 75.4 in [10]; 99.7 in [11].

Consider ENKAATGGTPSPSGA, for which the antibody binding signal in assay [1] is 512; in assay [2], 2640; in assay [3], 497; in assay [4] it was 616; in assay [5] it was 348; in assay [6] it was 279. Further, the antibody binding signal in [7] is 227; in [8], 168; in assay [9], 581; in assay [10], 137; in assay [11] it was 156.

With KKAATGGTPSPPGAS, the antibody binding signal in [1] came out at 302; in assay [2], 547; in assay [3], 232; in assay [4], 851; in assay [5], 216; in assay [6] it was 559. Besides, the antibody binding signal amounted to 308 in assay [7]; 205 in assay [8]; 692 in assay [9]; 87.4 in [10]; 429 in assay [11].

With GKEKKTAAGEAPSQS, the antibody binding signal in assay [1] came to 6600; in [2], 1770; in assay [3] it was 992; in [4], 4140; in [5], 4180; in assay [6], 5390. Also, the antibody binding signal came out at 146 in assay [7]; 110 in [8]; 92.4 in assay [9]; 84.8 in assay [10]; 75.7 in [11].

Consider TENKTATGETPSPPG, for which the antibody binding signal in assay [1] is 19100; in [2], 1470; in [3], 3760; in assay [4], 156; in assay [5], 149; in [6], 6230. The antibody binding signal in assay [7] amounted to 132; in assay [8], 235; in assay [9] it was 208; in assay [10], 157; in [11] it was 1450.

With SGKENKAAAGGAPSQ, the antibody binding signal amounted to 3610 in assay [1]; 883 in assay [2]; 19700 in assay [3]; 8540 in [4]; 4650 in assay [5]; 21700 in assay [6]. The antibody binding signal in assay [7] is 5650; in assay [8] it was 1260; in [9], 126; in [10], 203; in assay [11] it was 146.

PSGTDNKPATGGTPS: the antibody binding signal in [1] amounted to 38000; in assay [2] it was 22800; in assay [3], 46300; in [4], 4920; in [5], 925; in assay [6], 7370. Further, the antibody binding signal in assay [7] is 320; in assay [8], 1120; in assay [9] it was 1230; in [10], 617; in assay [11], 284.

For PSGTEKKTATGEAPS, the antibody binding signal in assay [1] was determined as 17400; in [2] it was 21200; in [3], 13700; in [4] it was 1430; in [5], 1600; in assay [6], 22500. Besides, the antibody binding signal was 413 in assay [7]; 346 in assay [8]; 416 in assay [9]; 267 in [10]; 436 in [11].

As to TPPSGTDNKPATGET, the antibody binding signal in assay [1] was 46100; in [2] it was 43100; in [3], 47400; in [4], 7410; in assay [5], 25300; in [6], 23600. The antibody binding signal in assay [7] was found to be 2350; in assay [8], 644; in assay [9] it was 542; in assay [10], 2760; in assay [11], 3310.

For the sequence GTEKKTAAGGAPSQP, the antibody binding signal is 357 in assay [1]; 666 in assay [2]; 391 in assay [3]; 6830 in assay [4]; 621 in assay [5]; 950 in [6]. Moreover, the antibody binding signal in [7] was 173; in [8] it was 426; in assay [9], 151; in [10], 118; in assay [11], 134.

The values above are taken from the supplement of paper PMC10441789.
